Results reported in publication PMC5587286, “Direct versus indirect actions of ghrelin on hypothalamic NPY neurons” (PLoS ONE, 2017).
Where two headings read alike, the source gives them in different places.

System: isolated NPY-GFP neurons from the VMH

In the case of `Oc1cc2ccccc2c2ccccc12` [9-phenanthrol], the “effect on the action of ghrelin” value is reported as “completely and reversibly block”.
For `NC(=O)c1ncn([C@@H]2O[C@H](CO)[C@@H](O)[C@H]2O)c1N` [AICAR, aminoimidazole carboxamide ribonucleotide], the “effect on [Ca2+]c when applied alone” value was “produced the same effect on NPY-GFP neurons as 100 pM ghrelin”.
With `N#Cc1cc2[nH]c(=O)c(=O)[nH]c2cc1[N+](=O)[O-]` [CNQX] the “effect on ghrelin action ([Ca2+]c increase)” value (shortened to “effect … ([Ca2+]c increase)”) was “no significant effect”.
In the case of `C=C[C@@]1(C)CC(=O)[C@]2(O)[C@@]3(C)[C@@H](O)CCC(C)(C)[C@@H]3[C@H](O)[C@H](OC(C)=O)[C@@]2(C)O1` [FSK, forskolin], the “effect on [Ca2+]c when applied alone” value (FSK 10 μM, compared with ghrelin 100 pM) is reported as “mimicked the action of ghrelin”.
For `NCCCC(=O)O` [GABA, Gamma aminobutyric acid], the “effect on ghrelin activation” value (GABA 5 pM to 1 μM, ghrelin 100 pM, mean of 12 neurons) was “suppresses ghrelin activation in a dose-dependent fashion”.
With `O=S(=O)(NCCNC/C=C/c1ccc(Br)cc1)c1cccc2cnccc12` [H-89] the “inhibition of ghrelin action” value (H-89 5 μM, ghrelin 100 pM, data not shown) was ~ 40% and the “inhibition of the stimulatory effect of ghrelin” value (H-89 10 μM, ghrelin 100 pM) was over 50%.
With `[Ni+2]` [Ni^2+] the “effect on ghrelin action” value was “markedly suppress ghrelin action”.
`Nc1ncnc2c1ncn2[C@@H]1O[C@@H]2COP(O)(=S)O[C@H]2[C@H]1O` (stereo partly drawn) [Rp-cAMP] was tested, and the “inhibition of ghrelin action” value (Rp-cAMP 20 μM, ghrelin 100 pM, data not shown) was ~ 40%.
For `O=C(O)c1ccc2c3c1cccc3c(=O)n1c3ccccc3nc21` [STO-609], the “effect on ghrelin activation” value (STO-609 1 μM, ghrelin 100 pM) was “partially blocks ghrelin activation”.
In the case of `CC1(C)C[C@@H](CN2CCC(F)(CNC(=O)c3cc(Cl)cc(Cl)c3)CC2)CCO1` [TTA-P2], the “effect on ghrelin action” value (TTA-P2 1 μM, ghrelin 100 pM) is reported as “partially inhibited ghrelin action”.
For `NC1=N[C@H](O)[C@H]2[C@H]3O[C@]4(O)O[C@@H]([C@@H](O)[C@@]2(N1)[C@@H]4O)[C@]3(O)CO` [TTX, tetrodotoxin], the “effect on the action of ghrelin” value was “has no effect”.
For `C/C=C(/C)C(=O)O[C@H]1C(C)=C2[C@H]([C@@H]1OC(=O)CCCCCCC)[C@@](C)(OC(C)=O)C[C@H](OC(=O)CCC)[C@@]1(O)[C@H]2OC(=O)[C@@]1(C)O` [Thapsigargin, thapsigargin], the “effect … ([Ca2+]c increase)” value was “did not block ghrelin action” and the “effect on basal [Ca2+]c” value (thapsigargin 0.5 μM) was “elevated basal [Ca^2+]c somewhat”.
For `COc1ccc2c(c1)CC[C@@H]1[C@@H]2CC[C@]2(C)[C@@H](NCCCCCCN3C(=O)C=CC3=O)CC[C@@H]12` [U73122], the “reduction of subsequent ghrelin activation” value (U73122 1 μM, 15 minute preincubation, ghrelin 100 pM) was over 50%.
`c1cc(-c2cnn3cc(-c4ccc(OCCN5CCCCC5)cc4)cnc23)ccn1` [compound C] was tested, and the “effect on NPY-GFP neuron activation by ghrelin and FSK” value (Compound C 30 μM, data not shown) was “markedly inhibited” and the “effect on oligomycin-induced [Ca2+]c increase” value (compound C 30 μM, oligomycin 50 nM) was “completely blocked”.
`CC1=NS(=O)(=O)c2cc(Cl)ccc2N1` [diazoxide] was tested, and the “effect on [Ca2+]c when applied alone” value (diazoxide 200 μM) was “reversibly activated the [Ca^2+]c response in all NPY-GFP neurons” and the “effect on neurons activated by compound A or by ghrelin” value (diazoxide 200 μM) was “no inhibitory effect”.
With `O=C(O)c1ccccc1Nc1cccc(C(F)(F)F)c1` [flufenamic acid] the “effect on the action of ghrelin” value (flufenamic acid 100 μM, ghrelin 200 pM) was “completely and reversibly block”.
For `CCCCCCCC(=O)OC[C@H](NC(=O)[C@H](CO)NC(=O)CN)C(=O)N[C@@H](Cc1ccccc1)C(=O)N[C@@H](CC(C)C)C(=O)N[C@@H](CO)C(=O)N1CCC[C@H]1C(=O)N[C@@H](CCC(=O)O)C(=O)N[C@@H](Cc1c[nH]cn1)C(=O)N[C@@H](CCC(N)=O)C(=O)N[C@@H](CCCNC(=N)N)C(=O)N[C@H](C(=O)N[C@@H](CCC(N)=O)C(=O)N[C@@H](CCC(N)=O)C(=O)N[C@@H](CCCNC(=N)N)C(=O)N[C@@H](CCCCN)C(=O)N[C@@H](CCC(=O)O)C(=O)N[C@@H](CO)C(=O)N[C@@H](CCCCN)C(=O)N[C@@H](CCCCN)C(=O)N1CCC[C@H]1C(=O)N1CCC[C@H]1C(=O)N[C@@H](C)C(=O)N[C@@H](CCCCN)C(=O)N[C@@H](CC(C)C)C(=O)N[C@@H](CCC(N)=O)C(=O)N1CCC[C@H]1C(=O)N[C@@H](CCCNC(=N)N)C(=O)O)C(C)C` [ghrelin], the “NPY-GFP neurons activated (elevated [Ca2+]c)” value was 16 of 16, the “[Ca2+]c response to continuous application” value was “sustained, but reversible [Ca^2+]c increase without apparent desensitization” and the EC50 (10 h) was about 0.11 nM.
With `COc1ccc(Cl)cc1C(=O)NCCc1ccc(S(=O)(=O)NC(=O)NC2CCCCC2)cc1` [glibenclamide] the “effect on the action of ghrelin” value (glibenclamide 1 μM, ghrelin 200 pM) was “reversibly inhibited the action of ghrelin”.
In the case of `COCC(=O)O[C@]1(CCN(C)CCCc2nc3ccccc3[nH]2)CCc2cc(F)ccc2[C@@H]1C(C)C` [mibefradil], the “effect on ghrelin action” value (mibefradil 5 μM, ghrelin 100 pM) is reported as “markedly suppress ghrelin action”.
For `CC[C@H]1/C=C/C=C/C[C@@H](C)[C@H](O)[C@@](C)(O)C(=O)[C@@H](C)[C@H](O)[C@@H](C)C(=O)[C@@H](C)[C@H](O)[C@@H](C)/C=C/C(=O)O[C@@H]2[C@H](C)[C@H](CC1)O[C@]1(CC[C@H](C)[C@H](C[C@@H](C)O)O1)[C@H]2C` [oligomycin], the “effect on [Ca2+]c when applied alone” value (oligomycin 50 nM) was “increased [Ca^2+]c”.
[D-lys3]-GHRP-6 was tested, and the “effect … ([Ca2+]c increase)” value was “blocked reversibly”.
